# The other results are listed elsewhere or left out.
# B1: Cohesin-hLangerin (Homo sapiens) (protein)
# chain: LDDLDAVRIKVDTVNAKPGDTVRIPVRFSGIPSKGIANCDFVYSYDPNVLEIIEIEPGDIIVDPNPDKSFDTAVYPDRKIIVFLFAEDSGTGAYAITKDGVFATIVAKVKEGAPNGLSVIKFVEVGGFANNDLVEQKTQFFDGGANVGDTTEPATPTTPVTTPTTTDDLDAASYPRFMGTISDVKTNVQLLKGRVDNISTLDSEIKKNSDGMEAAGVQIQMVNESLGYVRSQFLKLKTSVEKANAQIQILTRSWEEVSTLNAQIPELKSDLEKASALNTKIRALQGSLENMSKLLKRQNDILQVVSQGWKYFKGNFYYFSLIPKTWYSAEQFCVSRNSHLTSVTSESEQEFLYKTAGGLIYWIGLTKAGMEGDWSWVDDTPFNKVQSARFWIPGEPNNAGNNEHCGNIKAPSLQAWNDAPCDKTFLFICKRPYVPSEPHHHHHH
# Key:
# Assay in all cases: glycan array binding signal (z-score within array); higher = stronger binding
# Conditions in all cases: glycan notation: IUPAC condensed, linker removed
# Fuc(a1-2)Gal = target: Fuc(a1-2)Gal
# How it was run: (§1)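 The binding signal is a Z-score computed within each array and averaged over linkers. Arrays of the same protein sequence at different concentrations or buffers were also averaged together. Data originate from 3228 arrays in the Consortium for Functional Glycomics database, kept only where the protein sequence was available.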
# Fuc(a1-2)Gal(b1-3)GalNAc = target: Fuc(a1-2)Gal(b1-3)GalNAc
# How it was run: as §1
# [1] = target: Fuc(a1-2)Gal(b1-3)GalNAc(a1-3)[Fuc(a1-2)]Gal(b1-4)Glc
# How it was run: as §1
# [2] = target: Fuc(a1-2)Gal(b1-3)GalNAc(a1-3)[Fuc(a1-2)]Gal(b1-4)GlcNAc
# How it was run: as §1
# [3] = target: Fuc(a1-2)Gal(b1-3)GalNAc(b1-3)Gal
# How it was run: as §1
# [4] = target: Fuc(a1-2)Gal(b1-3)GalNAc(b1-3)Gal(a1-4)Gal(b1-4)Glc
# How it was run: as §1
# [5] = target: Fuc(a1-2)Gal(b1-3)GalNAc(b1-4)[Neu5Ac(a2-3)]Gal(b1-4)Glc
# How it was run: as §1
# Fuc(a1-2)Gal(b1-3)GlcNAc = target: Fuc(a1-2)Gal(b1-3)GlcNAc
# How it was run: as §1
# [6] = target: Fuc(a1-2)Gal(b1-3)GlcNAc(b1-2)Man(a1-3)[Fuc(a1-2)Gal(b1-3)GlcNAc(b1-2)Man(a1-6)]Man(b1-4)GlcNAc(b1-4)GlcNAc
# How it was run: as §1
# [7] = target: Fuc(a1-2)Gal(b1-3)GlcNAc(b1-2)Man(a1-3)[Fuc(a1-2)Gal(b1-3)GlcNAc(b1-2)Man(a1-6)]Man(b1-4)GlcNAc(b1-4)[Fuc(a1-6)]GlcNAc
# How it was run: as §1
# [8] = target: Fuc(a1-2)Gal(b1-3)GlcNAc(b1-3)Gal(b1-4)Glc
# How it was run: as §1
# [9] = target: Fuc(a1-2)Gal(b1-3)GlcNAc(b1-3)GalNAc
# How it was run: as §1
# [10] = target: Fuc(a1-2)Gal(b1-3)GlcNAc(b1-3)[Fuc(a1-2)Gal(b1-3)GlcNAc(b1-6)]GalNAc
# How it was run: as §1
# [11] = target: Fuc(a1-2)Gal(b1-3)GlcNAc(b1-3)[Gal(b1-4)GlcNAc(b1-6)]Gal(b1-4)Glc
# How it was run: as §1
# [12] = target: Fuc(a1-2)Gal(b1-3)GlcNAc(b1-3)[Neu5Ac(a2-6)Gal(b1-4)GlcNAc(b1-6)]Gal(b1-4)Glc
# How it was run: as §1
# [13] = target: Fuc(a1-2)Gal(b1-3)GlcNAc6S
# How it was run: as §1
# [14] = target: Fuc(a1-2)Gal(b1-3)[Fuc(a1-4)]GlcNAc
# How it was run: as §1
# [15] = target: Fuc(a1-2)Gal(b1-3)[Fuc(a1-4)]GlcNAc(b1-2)Man(a1-3)[Fuc(a1-2)Gal(b1-3)[Fuc(a1-4)]GlcNAc(b1-2)Man(a1-3)]Man(b1-4)GlcNAc(b1-4)GlcNAc
# How it was run: as §1
# [16] = target: Fuc(a1-2)Gal(b1-3)[Fuc(a1-4)]GlcNAc(b1-2)Man(a1-3)[Fuc(a1-2)Gal(b1-3)[Fuc(a1-4)]GlcNAc(b1-2)Man(a1-6)]Man(b1-4)GlcNAc(b1-4)[Fuc(a1-6)]GlcNAc(b1-4)[Fuc(a1-6)]GlcNAc
# How it was run: as §1
# [17] = target: Fuc(a1-2)Gal(b1-3)[Fuc(a1-4)]GlcNAc(b1-3)[Fuc(a1-3)[Gal(b1-4)]GlcNAc(b1-6)]Gal(b1-4)Glc
# How it was run: as §1
# [18] = target: Fuc(a1-2)Gal(b1-3)[Fuc(a1-4)]GlcNAc(b1-3)[Gal(b1-4)GlcNAc(b1-6)]Gal(b1-4)Glc
# How it was run: as §1
# Fuc(a1-2)Gal(b1-4)Glc = target: Fuc(a1-2)Gal(b1-4)Glc
# How it was run: as §1
# Fuc(a1-2)Gal(b1-4)Glc6S = target: Fuc(a1-2)Gal(b1-4)Glc6S
# How it was run: as §1
# Fuc(a1-2)Gal(b1-4)GlcNAc = target: Fuc(a1-2)Gal(b1-4)GlcNAc
# How it was run: as §1
# [19] = target: Fuc(a1-2)Gal(b1-4)GlcNAc(b1-2)Man
# How it was run: as §1
# [20] = target: Fuc(a1-2)Gal(b1-4)GlcNAc(b1-2)Man(a1-3)[Fuc(a1-2)Gal(b1-4)GlcNAc(b1-2)Man(a1-6)]Man(b1-4)GlcNAc(b1-4)GlcNAc
# How it was run: as §1
# [21] = target: Fuc(a1-2)Gal(b1-4)GlcNAc(b1-2)Man(a1-3)[Fuc(a1-2)Gal(b1-4)GlcNAc(b1-2)Man(a1-6)]Man(b1-4)GlcNAc(b1-4)[Fuc(a1-6)]GlcNAc
# How it was run: as §1
# [22] = target: Fuc(a1-2)Gal(b1-4)GlcNAc(b1-2)[Fuc(a1-2)Gal(b1-4)GlcNAc(b1-4)]Man(a1-3)[Fuc(a1-2)Gal(b1-4)GlcNAc(b1-2)Man(a1-6)]Man(b1-4)GlcNAc(b1-4)GlcNAc
# How it was run: as §1
# [23] = target: Fuc(a1-2)Gal(b1-4)GlcNAc(b1-3)Gal(b1-4)GlcNAc
# How it was run: as §1
# [24] = target: Fuc(a1-2)Gal(b1-4)GlcNAc(b1-3)Gal(b1-4)GlcNAc(b1-2)Man(a1-3)[Fuc(a1-2)Gal(b1-4)GlcNAc(b1-3)Gal(b1-4)GlcNAc(b1-2)Man(a1-6)]Man(b1-4)GlcNAc(b1-4)GlcNAc
# How it was run: as §1
# [25] = target: Fuc(a1-2)Gal(b1-4)GlcNAc(b1-3)Gal(b1-4)GlcNAc(b1-3)Gal(b1-4)GlcNAc
# How it was run: as §1
# [26] = target: Fuc(a1-2)Gal(b1-4)GlcNAc(b1-3)GalNAc
# How it was run: as §1
# [27] = target: Fuc(a1-2)Gal(b1-4)GlcNAc(b1-3)[Fuc(a1-2)Gal(b1-4)GlcNAc(b1-6)]GalNAc
# How it was run: as §1
# [28] = target: Fuc(a1-2)Gal(b1-4)GlcNAc(b1-3)[Fuc(a1-3)[Gal(b1-4)]GlcNAc(b1-6)]Gal(b1-4)Glc
# How it was run: as §1
# [29] = target: Fuc(a1-2)Gal(b1-4)GlcNAc(b1-6)GalNAc
# How it was run: as §1
# [30] = target: Fuc(a1-2)Gal(b1-4)GlcNAc6S
# How it was run: as §1
# [31] = target: Fuc(a1-2)Gal(b1-4)[Fuc(a1-3)]GlcNAc
# How it was run: as §1
# [32] = target: Fuc(a1-2)Gal(b1-4)[Fuc(a1-3)]GlcNAc(b1-2)Man(a1-3)[Fuc(a1-2)Gal(b1-4)[Fuc(a1-3)]GlcNAc(b1-2)Man(a1-6)]Man(b1-4)GlcNAc(b1-4)[Fuc(a1-6)]GlcNAc
# How it was run: as §1
# [33] = target: Fuc(a1-2)Gal(b1-4)[Fuc(a1-3)]GlcNAc(b1-2)[Fuc(a1-2)Gal(b1-4)[Fuc(a1-3)]GlcNAc(b1-4)]Man(a1-3)[Fuc(a1-2)Gal(b1-4)[Fuc(a1-3)]GlcNAc(b1-2)Man(a1-6)]Man(b1-4)GlcNAc(b1-4)GlcNAc
# How it was run: as §1
# [34] = target: Fuc(a1-2)Gal(b1-4)[Fuc(a1-3)]GlcNAc(b1-3)Gal(b1-4)[Fuc(a1-3)]GlcNAc
# How it was run: as §1
# [35] = target: Fuc(a1-2)Gal(b1-4)[Fuc(a1-3)]GlcNAc(b1-3)Gal(b1-4)[Fuc(a1-3)]GlcNAc(b1-3)Gal(b1-4)[Fuc(a1-3)]GlcNAc
# How it was run: as §1
# [36] = target: Fuc(a1-2)Gal(b1-4)[Fuc(a1-3)]GlcNAc(b1-3)GalNAc
# How it was run: as §1
# [37] = target: Fuc(a1-2)Gal(b1-4)[Fuc(a1-3)]GlcNAc(b1-3)[Neu5Ac(a2-6)Gal(b1-4)GlcNAc(b1-6)]Gal(b1-4)Glc
# How it was run: as §1
# [38] = target: Fuc(a1-2)Gal3S(b1-4)GlcNAc
# How it was run: as §1
# [39] = target: Fuc(a1-2)Gal6S(b1-3)GlcNAc
# How it was run: as §1
binder,measurement,setting,value
B1,glycan array binding signal (z-score),Fuc(a1-2)Gal,0.028
same,glycan array binding signal (z-score),Fuc(a1-2)Gal(b1-3)GalNAc,-0.421
same,glycan array binding signal (z-score),[1],-0.423
same,glycan array binding signal (z-score),[2],-0.405
same,glycan array binding signal (z-score),[3],0.364
same,glycan array binding signal (z-score),[4],-0.334
same,glycan array binding signal (z-score),[5],-0.321
same,glycan array binding signal (z-score),Fuc(a1-2)Gal(b1-3)GlcNAc,-0.364
same,glycan array binding signal (z-score),[6],1.65
same,glycan array binding signal (z-score),[7],2.42
same,glycan array binding signal (z-score),[8],-0.415
same,glycan array binding signal (z-score),[9],-0.243
same,glycan array binding signal (z-score),[10],-0.262
same,glycan array binding signal (z-score),[11],-0.423
same,glycan array binding signal (z-score),[12],-0.42
same,glycan array binding signal (z-score),[13],0.03
same,glycan array binding signal (z-score),[14],-0.409
same,glycan array binding signal (z-score),[15],0.307
same,glycan array binding signal (z-score),[16],0.805
same,glycan array binding signal (z-score),[17],-0.449
same,glycan array binding signal (z-score),[18],-0.422
same,glycan array binding signal (z-score),Fuc(a1-2)Gal(b1-4)Glc,-0.322
same,glycan array binding signal (z-score),Fuc(a1-2)Gal(b1-4)Glc6S,-0.348
same,glycan array binding signal (z-score),Fuc(a1-2)Gal(b1-4)GlcNAc,-0.189
same,glycan array binding signal (z-score),[19],-0.254
same,glycan array binding signal (z-score),[20],0.805
same,glycan array binding signal (z-score),[21],2.24
same,glycan array binding signal (z-score),[22],1.79
same,glycan array binding signal (z-score),[23],0.532
same,glycan array binding signal (z-score),[24],1.25
same,glycan array binding signal (z-score),[25],0.552
same,glycan array binding signal (z-score),[26],-0.294
same,glycan array binding signal (z-score),[27],-0.344
same,glycan array binding signal (z-score),[28],-0.446
same,glycan array binding signal (z-score),[29],-0.095
same,glycan array binding signal (z-score),[30],-0.352
same,glycan array binding signal (z-score),[31],-0.276
same,glycan array binding signal (z-score),[32],0.376
same,glycan array binding signal (z-score),[33],0.939
same,glycan array binding signal (z-score),[34],-0.41
same,glycan array binding signal (z-score),[35],-0.145
same,glycan array binding signal (z-score),[36],-0.38
same,glycan array binding signal (z-score),[37],-0.441
same,glycan array binding signal (z-score),[38],2.43
same,glycan array binding signal (z-score),[39],-0.321
